Test results taken from PubChem BioAssay AID686970 (National Center for Advancing Translational Sciences (NCATS), 2013).
About 6,000 (1.7%) of roughly 360,000 compounds were called active. Inconclusive means that the source gave no clear call. Such entries were picked first, then a sample of the others. The call rests on the fitted dose curve; in most records, active means well fitted cell-killing curve with a large enough effect; inconclusive means small, poorly fitted or top-dose-only effect, or effect the other way; inactive means flat fitted curve, though single readings scatter. No potency is given beside an inconclusive call; the fits are too rough.

Experiment: qHTS for induction of synthetic lethality in tumor cells producing 2HG: qHTS for the HT-1080-NT fibrosarcoma cell line;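 further: NT is the 2HG producing partner of a matched IDH1 knockdown line; nearly all actives have a fitted effect of over 55% in size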;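 on activity, negative = less viability: 0% = DMSO-treated cells and -100% = media-only wells without cells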
Conditions: HT-1080-NT fibrosarcoma viability, CellTiter-Glo ATP luminescence, 48 h; activity, negative = less viability: at 46.1 µM (top of the series) unless noted
Method in brief: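 750 cells/well, RPMI + 5% FBS; 2 h settle, compound pin-transfer, 48 h at 37 degrees C. CellTiter-Glo 10 min RT, luminescence. Normalized to DMSO and media-only wells.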
Potency means the concentration at half of the fitted maximal effect; tags describe the fitted curve by direction and shape.

SMILES	activity, negative = less viability	Potency
COCCC(=O)N(Cc1ccc2c(c1)OCO2)C(C(=O)NC1CCCCC1)c1ccncc1 (configuration not stated)	inactive: 0.705%	
CSc1cccc(NC(=O)C2CCCN2S(=O)(=O)c2ccc(Br)s2)c1 (configuration not stated)		inconclusive [cytotoxic, single point]
CCC1Oc2ccc(C)cc2N(CC(=O)N(Cc2ccc(C)o2)C2CC(C)(C)NC(C)(C)C2)C1=O (configuration not stated)		active: 16.4 µM
O=C(Nc1cc(-c2ccccc2)nn1C1CCCCC1)c1ccc(Cl)cc1	inactive: -17%	
COc1ccc(Nc2nc(-c3ccccc3)nc3ccccc23)cc1S(=O)(=O)N1CCOCC1		inconclusive [cytotoxic, single point]
O=C(Nc1ccc(Br)cc1)c1cc(-c2ccc3c(c2)OCO3)on1		inconclusive [cytotoxic, single point]
COc1ccc(C)cc1NC(=O)CSc1nnc(-c2cc3cccc(OC)c3o2)n1N		inconclusive [cytotoxic, single point]
COc1ccc(OCCC(=O)NC2=NCCS2)cc1		inconclusive [rising, partial curve, poor fit]
CCCCCc1cc(=O)oc2c(C(CCN(CC)CC)c3ccc(OC)cc3)c(OC)cc(OC)c12 (configuration not stated)		inconclusive [cytotoxic, single point]
Cc1c(C(=O)N(Cc2ccc(Cl)cc2)C2CCS(=O)(=O)C2)oc2ccccc12 (configuration not stated)		inconclusive [cytotoxic, single point]
COc1ccc(OC)c(S(=O)(=O)Nc2ccc(O)c3ccccc23)c1		active: 23.1 µM
C[C@H](CO)N1C[C@H](C)[C@H](CN(C)S(=O)(=O)c2cccs2)OCc2cnnn2CCCC1=O	inactive: 4.46%	
CC(Oc1cccc(Cl)c1)C(=O)Nc1nc(-c2ccccn2)cs1 (configuration not stated)		inconclusive [cytotoxic, partial curve]
O=C(N/N=C/c1cc(Br)cc(Cl)c1O)c1ccc2c(c1)OCO2		inconclusive [cytotoxic, full curve]
CC(=O)c1ccc(NC(=O)c2ccc([N+](=O)[O-])o2)cc1		inconclusive [cytotoxic, single point]
Cc1cccc(/C=C/C(=O)c2ccc(NC3=NCCCS3)cc2)c1		inconclusive [cytotoxic, single point]
CCOc1ccccc1NC(=O)COC(=O)CC(C)(C)CC1=NS(=O)(=O)c2ccccc2N1		inconclusive [cytotoxic, partial curve]
Nc1nc(CSC(=S)N2CCN(c3ccccc3)CC2)nc(Nc2ccc(F)cc2)n1		inconclusive [cytotoxic, partial curve]
COc1ccc(CCN2C(=O)c3[nH]nc(-c4ccccc4O)c3C2c2cccc(O)c2)cc1OC (configuration not stated)		inconclusive [cytotoxic, single point]
CCOC(=O)c1c(S(=O)(=O)N(C)C2CCCCC2)c(C)n(C)c1C	inactive: -3.87%	
Cn1c(CC(=O)Nc2ccccc2F)nnc1SCC(=O)NC1CCCCC1	inactive: 12%	
COc1ccccc1NC(=O)c1cc2ccc(O)cc2o/c1=N\O		inconclusive [cytotoxic, single point]
COC(=O)CC1(C(=O)OC)Oc2ccc(Br)cc2C(=O)N1c1cc(Cl)cc(Cl)c1 (configuration not stated)		inconclusive [cytotoxic, single point]

SMILES	activity, negative = less viability	Potency
CC1CCN(S(=O)(=O)c2ccc(NC(=O)CN3CCCC(C)C3)cc2)CC1 (configuration not stated)		inconclusive [cytotoxic, single point]
CCc1ccccc1Nc1nn2c(=O)c3ccc(C(=O)NCc4ccccn4)cc3nc2s1		active: 0.259 µM
CC1(C)CC[C@]2(C(=O)O)CC[C@]3(C)C(=CC[C@@H]4[C@@]5(C)CC[C@H](O[C@@H]6O[C@H](C(=O)O)[C@@H](O)[C@H](O[C@@H]7OC[C@H](O)[C@H](O)[C@H]7O)[C@H]6O)C(C)(C)[C@@H]5CC[C@]43C)[C@@H]2C1		active: 18.4 µM
Cc1ccc(-n2ccc(=O)c(C(=O)Nc3ccc(S(=O)(=O)N4CCOCC4)cc3)n2)cc1	inactive: 8.59%	
Cc1csc(NC(=O)Nc2ccc(Cl)cc2)n1		inconclusive [cytotoxic, single point]
CCOC(=O)N1CCN(C(=O)c2[nH]c(C(F)(F)F)nc2-c2ccccc2)CC1		inconclusive [cytotoxic, single point]
COc1cc(NC(=O)C2CCN(S(=O)(=O)c3ccc4[nH]c(=O)oc4c3)CC2)cc(OC)c1	inactive: -1.18%	
COc1cc(SC#N)ccc1N=Cc1c(C)[nH]n(-c2ccc(C)c(C)c2)c1=O		active: 20.6 µM
COc1cc2c(cc1OC)C(c1cc3ccccc3oc1=O)=NC(C)(C)C2		inconclusive [cytotoxic, partial curve]
O=[N+]([O-])C(/C=C(\Cl)[N+](=O)[O-])=C1N(Cc2ccc(Cl)nc2)CCN1Cc1ccc(Cl)nc1		inconclusive [cytotoxic, single point]
O=C(N/N=C/c1ccc2c(c1)OCO2)c1ccc(COc2cccc3cccnc23)cc1		inconclusive [cytotoxic, partial curve]
Cn1cc(S(=O)(=O)N2CCc3ccccc32)cc1C(=O)Nc1ccc(Cl)cc1	inactive: -24.9%	
COc1cccc(-c2c(C(=O)N/N=C/c3ccc(C)o3)nnn2-c2nonc2N)c1		inconclusive [rising, partial curve]
CCOC(=O)C(C(=O)OCC)C1OC(=O)c2cc3c(cc21)C(=O)OC3C(C(=O)OCC)C(=O)OCC (configuration not stated)		inconclusive [cytotoxic, single point]
COc1cc(OC)cc(-c2nnc(Nc3nc4c(F)cccc4s3)o2)c1	inactive: 4.75%	
O=C(Nc1ccon1)c1sc2cc(Cl)ccc2c1Cl		inconclusive [cytotoxic, single point]
CS(=O)(=O)c1ccc(C(=O)NCCN2C(=O)S/C(=C\c3cccnc3)C2=O)cc1[N+](=O)[O-]		inconclusive [cytotoxic, partial curve]
CCc1ccc(C(O)c2ncc(-c3cccc(C)c3)[nH]2)cc1 (configuration not stated)		inconclusive [cytotoxic, single point]
O=c1[nH]nc(SCCS(=O)(=O)c2ccc(F)cc2)n1-c1ccccc1C(F)(F)F		inconclusive [cytotoxic, single point]
CC1NC(=S)N(C2CCCCC2)C1=O (configuration not stated)	inactive: 17.2%	
O=C(c1ccc(Cl)cc1)C1CCCN(C(=O)c2csnn2)C1 (configuration not stated)	inactive: -1.8%	
CCNC(=O)c1cc2c(c(-c3cccc(-c4cccc(C(=O)N(C)C)c4)c3)n1)[C@H](CCO)N(S(=O)C(C)(C)C)C2 (some centres not stated)	inactive: 1.31%	
CCOC(=O)c1csc(-c2csc(CCNC(=O)c3ccccc3)n2)n1	inactive: 5.88%	

SMILES	activity, negative = less viability	Potency
CC1Cc2ccccc2N1Cc1nc2cc(Cl)ccc2c(=O)[nH]1 (configuration not stated)		inconclusive [cytotoxic, single point]
COc1ccccc1C(=O)CN1C(=O)NC2(CCc3ccccc32)C1=O (configuration not stated)	inactive: 4.86%	
COc1cc(-c2nc3ccc(C)cn3c2Nc2ccc3c(c2)OCCO3)ccc1O		inconclusive [cytotoxic, single point]
COC(=O)c1ccc(NC(=O)c2cccc(OC)c2)cc1		inconclusive [cytotoxic, single point]
Cc1ccccc1Oc1nc2c(C)cccn2c(=O)c1/C=C(\C#N)C(=O)NC1CCS(=O)(=O)C1 (configuration not stated)		inconclusive [cytotoxic, single point]
O=C(Nc1ccccc1N1CCN(c2ccccc2)CC1)c1ccccc1F	inactive: 5.52%	
Cc1cc(Cl)ccc1N=c1ssnc1Cl		inconclusive [cytotoxic, single point]
Cc1ccccc1NC(=O)c1cccc(S(=O)(=O)Oc2ccc([N+](=O)[O-])cc2)c1	inactive: -5.81%	
COc1ccc([N+](=O)[O-])cc1NC(=S)NC(NC(=O)C(c1ccccc1)c1ccccc1)C(Cl)(Cl)Cl (configuration not stated)		inconclusive [cytotoxic, partial curve]
CC1(C(=O)NCC(F)(F)F)CCN1C(=O)C1(c2ccccc2)CC1 (configuration not stated)		inconclusive [rising, single point]
CCOc1ccc(N2C(=O)CC(NC3CCN(C(=O)c4cccs4)CC3)C2=O)cc1 (configuration not stated)	inactive: 5.79%	
CCOC(=O)N/N=C/c1c(C)nn(-c2cccc(C(F)(F)F)c2)c1Cl		active: 3.26 µM
COC(=O)[C@]12CCCCC=C1N(Cc1cccc3ccccc13)C(=O)[C@H](CC(=O)N1CCN(C(=O)c3ccco3)CC1)C2		inconclusive [cytotoxic, single point]
COc1ccc(C2C(C(C)=O)=C(O)C(=O)N2c2ccc(F)cc2)cc1 (configuration not stated)	inactive: -7.14%	
CCOc1ccc(-c2c[n+]3c(n2-c2ccccc2)CCCCC3)cc1		inconclusive [cytotoxic, partial curve]
O=S(=O)(c1cc(F)ccc1F)N1CCN2CCCC2C1 (configuration not stated)	inactive: 8.74%	
CCN(CC)CCN1C(=O)c2cccc3cc(N)cc(c23)C1=O		active: 32.6 µM
CC(C)Nc1ncnc2c1ncn2[C@H]1CN(Cc2cccs2)C[C@@H](CO)O1		inconclusive [rising, partial curve]
CCCCc1c(-c2ccccc2OC)ncn1CCc1ccccc1OC		active: 18.4 µM
Cc1oc(-c2ccccc2Cl)nc1CN(C)C(C)c1ccon1 (configuration not stated)		inconclusive [rising, partial curve]
CCCc1cc(=O)oc2cc(O[C@@H]3O[C@H](CO)[C@@H](O)[C@H](O)[C@H]3O)ccc12	inactive: 1.77%	
